Assay results taken from PMC6305376.
These are yes or no findings as the source states them, for the method shown. Binding seen in cells or lysates may run through a third protein. Some entries that bind do so weakly or less than the wild type. For some assays here: Tags and fused reporters may be left off the sequences shown.

Sequences of proteins named here, by UniProt entry; tags and fusion partners are left off. A change or cut given only in a name is not applied to a line headed by its entry. A line that says so, or that is headed by a name, gives the form on record, which may keep a tag or linker. Residues count along the entry.
UniProt Q61768: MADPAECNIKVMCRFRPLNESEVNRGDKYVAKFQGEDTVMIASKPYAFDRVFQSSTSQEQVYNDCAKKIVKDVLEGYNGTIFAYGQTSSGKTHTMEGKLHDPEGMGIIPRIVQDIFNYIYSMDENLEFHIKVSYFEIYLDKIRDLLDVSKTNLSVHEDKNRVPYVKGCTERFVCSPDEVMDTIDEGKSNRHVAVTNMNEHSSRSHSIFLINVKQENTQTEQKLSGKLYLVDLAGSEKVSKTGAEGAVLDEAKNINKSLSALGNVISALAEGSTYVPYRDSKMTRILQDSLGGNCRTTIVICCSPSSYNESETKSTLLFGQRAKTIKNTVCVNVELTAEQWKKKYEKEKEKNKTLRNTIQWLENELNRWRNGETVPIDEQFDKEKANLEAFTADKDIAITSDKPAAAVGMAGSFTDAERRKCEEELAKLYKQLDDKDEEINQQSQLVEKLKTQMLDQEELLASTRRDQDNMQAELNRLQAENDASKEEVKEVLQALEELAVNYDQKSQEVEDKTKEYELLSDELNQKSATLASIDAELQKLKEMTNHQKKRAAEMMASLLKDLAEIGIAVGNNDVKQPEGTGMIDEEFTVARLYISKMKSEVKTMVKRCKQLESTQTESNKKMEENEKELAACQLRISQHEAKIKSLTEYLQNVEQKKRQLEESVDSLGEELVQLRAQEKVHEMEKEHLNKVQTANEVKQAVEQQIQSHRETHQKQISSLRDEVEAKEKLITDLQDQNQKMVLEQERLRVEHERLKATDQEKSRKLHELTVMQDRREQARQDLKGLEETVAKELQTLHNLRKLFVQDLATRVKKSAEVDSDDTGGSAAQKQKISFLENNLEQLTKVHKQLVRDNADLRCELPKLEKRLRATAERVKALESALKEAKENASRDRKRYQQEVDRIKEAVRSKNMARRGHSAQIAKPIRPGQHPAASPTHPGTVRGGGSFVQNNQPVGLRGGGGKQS
GST-fused Kif5b tail (Kif5b^891–963): residues 891-963 of Q61768
UniProt P22892: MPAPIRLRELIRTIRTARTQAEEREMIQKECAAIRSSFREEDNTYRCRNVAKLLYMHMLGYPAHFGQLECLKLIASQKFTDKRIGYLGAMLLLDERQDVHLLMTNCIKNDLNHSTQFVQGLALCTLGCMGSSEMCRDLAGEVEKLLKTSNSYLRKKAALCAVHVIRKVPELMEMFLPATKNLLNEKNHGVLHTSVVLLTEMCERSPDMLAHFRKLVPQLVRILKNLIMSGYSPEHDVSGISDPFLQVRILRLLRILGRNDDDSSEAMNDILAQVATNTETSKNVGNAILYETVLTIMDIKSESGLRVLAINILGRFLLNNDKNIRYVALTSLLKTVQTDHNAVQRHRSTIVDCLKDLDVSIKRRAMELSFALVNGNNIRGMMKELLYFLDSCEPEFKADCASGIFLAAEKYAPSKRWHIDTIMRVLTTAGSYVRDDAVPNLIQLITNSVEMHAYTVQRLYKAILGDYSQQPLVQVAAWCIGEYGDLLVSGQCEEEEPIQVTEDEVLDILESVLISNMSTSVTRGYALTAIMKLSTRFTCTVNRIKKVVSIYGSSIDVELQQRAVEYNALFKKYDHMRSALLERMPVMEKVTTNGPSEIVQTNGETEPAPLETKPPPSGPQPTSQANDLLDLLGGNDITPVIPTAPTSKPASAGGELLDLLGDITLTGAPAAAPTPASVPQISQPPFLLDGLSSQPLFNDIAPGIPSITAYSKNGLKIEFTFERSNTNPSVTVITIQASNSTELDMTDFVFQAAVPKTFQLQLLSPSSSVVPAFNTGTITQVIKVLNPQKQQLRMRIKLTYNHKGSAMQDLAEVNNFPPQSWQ

B1: Flag-tagged CHC^1280–1429 (N-terminus of the CHC proximal segment) (domain or fragment, UniProt Q68FD5 1280-1429)
chain: ADELEELINYYQDRGYFEELITMLEAALGLERAHMGMFTELAILYSKFKPQKMREHLELFWSRVNIPKVLRAAEQAHLWAELVFLYDKYEEYDNAIITMMNHPTDAWKEGQFKDIITKVANVELYYKAIQFYLEFKPLLLNDLLMVLSPR
B2: syntaxin-6, endogenous in mouse cortex (protein, UniProt Q9JKK1 1-255)
chain: MSMEDPFFVVKGEVQKAVNTAQGLFQRWTELLQGPSAATREEIDWTTNELRNNLRSIEWDLEDLDETISIVEANPRKFNLDATELSIRKAFITSTRQIVRDMKDQMSASSVQALAERKNRQALLGDSSSQSWNAGVADRYGRLDRELQLANSHFIEEQQAQQQLIVEQQDEQLELVSGSIGVLKNMSQRIGGELEEQAVMLDDFSHELESTQSRLDNVMKKLAKVSHMTSDRRQWCAIAILFAVLVVVLILFLVL
B3: dynamin I, endogenous in mouse cortex (protein, UniProt P39053 1-867)
chain: MGNRGMEDLIPLVNRLQDAFSAIGQNADLDLPQIAVVGGQSAGKSSVLENFVGRDFLPRGSGIVTRRPLVLQLVNSTTEYAEFLHCKGKKFTDFEEVRLEIEAETDRVTGTNKGISPVPINLRVYSPHVLNLTLVDLPGMTKVPVGDQPPDIEFQIRDMLMQFVTKENCLILAVSPANSDLANSDALKIAKEVDPQGQRTIGVITKLDLMDEGTDARDVLENKLLPLRRGYIGVVNRSQKDIDGKKDITAALAAERKFFLSHPSYRHLADRMGTPYLQKVLNQQLTNHIRDTLPGLRNKLQSQLLSIEKEVDEYKNFRPDDPARKTKALLQMVQQFAVDFEKRIEGSGDQIDTYELSGGARINRIFHERFPFELVKMEFDEKELRREISYAIKNIHGIRTGLFTPDMAFETIVKKQVKKIREPCLKCVDMVISELISTVRQCTKKLQQYPRLREEMERIVTTHIREREGRTKEQVMLLIDIELAYMNTNHEDFIGFANAQQRSNQMNKKKTSGNQDEILVIRKGWLTINNIGIMKGGSKEYWFVLTAENLSWYKDDEEKEKKYMLSVDNLKLRDVEKGFMSSKHIFALFNTEQRNVYKDYRQLELACETQEEVDSWKASFLRAGVYPERVGDKEKASETEENGSDSFMHSMDPQLERQVETIRNLVDSYMAIVNKTVRDLMPKTIMHLMINNTKEFIFSELLANLYSCGDQNTLMEESAEQAQRRDEMLRMYHALKEALSIIGDINTTTVSTPMPPPVDDSWLQVQSVPAGRRSPTSSPTPQRRAPAVPPARPGSRGPAPGPPPAGSALGGAPPVPSRPGASPDPFGPPPQVPSRPNRAPPGVPSLGAWRLNSPQGKHENRAGKARL

Key:
[1] = target: Kif5b (kinesin-1 heavy chain), endogenous in mouse cortex (mouse (endogenous in mouse cortex)) (UniProt Q61768); assay: co-IP; Kif5b immunoprecipitated from mouse cortical extracts under 150 mM and 500 mM salt; lysis buffer 50 mM Tris pH 7.4, 150 mM NaCl, 2 mM EDTA, 1% Triton X-100; protein G-Agarose; immunoblot
[2] = target: GST-fused Kif5b tail (Kif5b^891–963) (UniProt Q61768); assay: pull-down; GST-fused Kif5b^891-963 immobilized on glutathione-Sepharose beads, incubated with bacterial extracts containing flag-tagged CHC fragments in lysis buffer (50 mM Tris pH 7.4, 150 mM NaCl, 2 mM EDTA, 1% Triton X-100); only the target purified
[3] = target: clathrin heavy chain (CHC), endogenous in Neuro2a cells (mouse (endogenous in Neuro2a)) (UniProt Q68FD5); assay: co-IP; competition in cells: Neuro2a cells pre-treated 1 h with 100 µM TAT-Kif5b^891-915 peptide at 37 °C, then co-immunoprecipitation of CHC with Kif5b; only the binder purified

Molecule	binding [1]	other results
γ-Adaptin (subunit of AP-1), endogenous in mouse cortex (from UniProt P22892 1-822)	binds	–
B1	–	binding [2]: binds
GRKKRRQRRRPPQDRKRYQQEVDRIKEAVRSKNMARRG [TAT-Kif5b^891–915 peptide (cell-penetrating)]	–	binding [3]: binds
B2	no binding	–
B3	no binding	–
